# Measurements taken from the supplement of paper PMC4604168 (melanoma cell lines).
# This is one part of the list. Repeats are few or missing, and single values can be far off.
# Columns and labels:
# Assay in all cases: cell count relative to DMSO control; melanoma cells; higher = more viable cells
# Details in all cases: library dose: standard library concentration; 72 h
# [1] = system: G361
# [2] = system: IPC-298
# [3] = system: IST-MEL1
# [4] = system: LB2518-MEL
# [5] = system: LOXIMVI
# [6] = system: MEL-HO
# [7] = system: MZ2-MEL
# [8] = system: MeWo
# [9] = system: RPMI7951
# [10] = system: RVH-421
# 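Further: cells treated in 1,536-well plates, then fixed and DAPI-stained, with nuclei counted from automated high-throughput microscope images.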
SMILES,cell count [1],cell count [2],cell count [3],cell count [4],cell count [5],cell count [6],cell count [7],cell count [8],cell count [9],cell count [10]
"Cn1c(=O)n(-c2ccc(C(C)(C)C#N)cc2)c2c3cc(-c4cnc5ccccc5c4)ccc3ncc21 + Nc1ncn([C@H]2C[C@H](O)[C@@H](CO)O2)c(=O)n1 [decitabine] (first compound 0.02 µM, partner dose 0.5 µM)",51.5%,45.7%,68.9%,59.8%,42.6%,64.9%,47.8%,46.9%,47.5%,64.7%
"Cn1c(=O)n(-c2ccc(C(C)(C)C#N)cc2)c2c3cc(-c4cnc5ccccc5c4)ccc3ncc21 + CN(C)S(=O)(=O)c1ccc2c(c1)/C(=C/c1cc3c([nH]1)CCCC3)C(=O)N2 [SU6656] (first compound 0.02 µM, partner dose 2 µM)",74.5%,96.3%,71.5%,81.7%,119%,80.1%,86.2%,63.5%,55.7%,99%
"CC(C)C[C@H](NC(=O)[C@H](Cc1ccccc1)NC(=O)c1cnccn1)B(O)O [Bortezomib] + CCCS(=O)(=O)Nc1ccc(F)c(C(=O)c2c[nH]c3ncc(Cl)cc23)c1F [PLX4720] (first compound 0.005 µM, partner dose 0.4 µM)",0.797%,10.4%,15.6%,2.25%,13.4%,32.4%,3.8%,15.7%,6.68%,82.1%
"Cc1cn(-c2cc(NC(=O)c3ccc(C)c(Nc4nccc(-c5cccnc5)n4)c3)cc(C(F)(F)F)c2)cn1 [nilotinib] + Cc1cc(N2CCOCC2)cc2[nH]c(-c3c(NC[C@@H](O)c4cccc(Cl)c4)cc[nH]c3=O)nc12 [BMS536924] (first compound 1 µM, partner dose 1 µM)",81.5%,95.5%,75.8%,83.7%,97.2%,86.3%,104%,66.1%,77.9%,86.1%
"Cn1c(=O)n(-c2ccc(C(C)(C)C#N)cc2)c2c3cc(-c4cnc5ccccc5c4)ccc3ncc21 + Nc1nc(F)nc2c1ncn2[C@@H]1O[C@H](CO)[C@@H](O)[C@@H]1O [fludarabine] (first compound 0.02 µM, partner dose 1 µM)",57%,45.7%,62%,80.5%,76.7%,57.5%,67.3%,70.5%,48.3%,54.7%
"Cn1c(=O)n(-c2ccc(C(C)(C)C#N)cc2)c2c3cc(-c4cnc5ccccc5c4)ccc3ncc21 + Oc1nc(-c2ccc(C(F)(F)F)cc2)nc2c1CSCC2 [XAV939] (first compound 0.02 µM, partner dose 10 µM)",63.4%,68.4%,71.7%,88.7%,89.1%,68%,76.8%,64.1%,58.2%,277%
"CC(C)C[C@H](NC(=O)[C@H](Cc1ccccc1)NC(=O)c1cnccn1)B(O)O [Bortezomib] + CCc1ccc(CCOc2ccc(CC3SC(=O)NC3=O)cc2)nc1 [pioglitazone] (first compound 0.005 µM, partner dose 10 µM)",0.689%,9.22%,9.01%,1.75%,10.7%,31.6%,3.34%,9.08%,5.72%,51.5%
"CC(C)C[C@H](NC(=O)[C@H](Cc1ccccc1)NC(=O)c1cnccn1)B(O)O [Bortezomib] + COc1ccc(-c2ccc3c(N4CCOCC4)nc(N4C[C@@H](C)O[C@@H](C)C4)nc3n2)cc1CO [KU0063794] (first compound 0.005 µM, partner dose 0.1 µM)",0.87%,16%,21.9%,7.31%,26.6%,41.5%,7.1%,15.2%,10.3%,7.75%
"Cc1cc(Nc2cc(N3CCN(C)CC3)nc(/C=C/c3ccccc3)n2)n[nH]1 + OCc1c[nH]c2ccccc12 [Indole-3-carbinol] (first compound 0.2 µM, partner dose 4 µM)",101%,73.7%,92.7%,75.5%,73.7%,96.3%,82.9%,74.6%,95.7%,101%
"Cc1cc(Nc2cc(N3CCN(C)CC3)nc(/C=C/c3ccccc3)n2)n[nH]1 + C=CCn1c(=O)c2cnc(Nc3ccc(N4CCN(C)CC4)cc3)nc2n1-c1cccc(C(C)(C)O)n1 [MK1775] (first compound 0.2 µM, partner dose 0.1 µM)",70.4%,79.1%,86.3%,51.5%,77.5%,88%,96.4%,64.1%,47.1%,92.7%
"COc1ccc(C2=N[C@@H](c3ccc(Cl)cc3)[C@@H](c3ccc(Cl)cc3)N2C(=O)N2CCNC(=O)C2)c(OC(C)C)c1 [Nutlin-3] + CO[C@H]1C[C@@H]2CC[C@@H](C)[C@@](O)(O2)C(=O)C(=O)N2CCCC[C@H]2C(=O)O[C@H]([C@H](C)C[C@@H]2CC[C@@H](OCCO)[C@H](OC)C2)CC(=O)[C@H](C)/C=C(\C)[C@@H](O)[C@@H](OC)C(=O)[C@H](C)C[C@H](C)/C=C/C=C/C=C/1C [everolimus] (first compound 0.5 µM, partner dose 0.1 µM)",54.4%,69.5%,83.4%,59.2%,70%,61.4%,66%,59.6%,66.3%,152%
